Source: the supplement of paper PMC10441789
Some of the results follow. Antibody binding of pooled human sera (four to six donors per pool; dilution not stated) to peptides of the Trypanosoma cruzi antigen TSSA on microarrays. Quantile-normalised fluorescence in arbitrary units, mean of duplicate arrays; higher = more binding. No active / inactive call. The uninfected pools are read here as the healthy donors of the same country. The strongest signals lie near the top of the scale (about 60,000).

Experiments:
Assay in all cases: antibody binding signal (normalised fluorescence) (arbitrary fluorescence units); higher = stronger serum antibody binding to peptide
[1] = test system: pooled sera of chronic Chagas disease patients, Argentina
Experimental: (§1)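 Microarray of 15-residue peptides over residues 30-55 of Trypanosoma cruzi TSSAII, each with 1 to 10 substitutions at naturally variable positions, probed with one serum pool per country.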

[2] = test system: pooled sera of chronic Chagas disease patients, Bolivia
Experimental: as §1

[3] = test system: pooled sera of chronic Chagas disease patients, Brazil
Experimental: as §1

[4] = test system: pooled sera of chronic Chagas disease patients, Colombia
Experimental: as §1

[5] = test system: pooled sera of chronic Chagas disease patients, Mexico
Experimental: as §1

[6] = test system: pooled sera of chronic Chagas disease patients, USA
Experimental: as §1

[7] = test system: pooled sera of uninfected people, Argentina
Experimental: as §1

[8] = test system: pooled sera of uninfected people, Bolivia
Experimental: as §1

[9] = test system: pooled sera of uninfected people, Brazil
Experimental: as §1

[10] = test system: pooled sera of uninfected people, Colombia
Experimental: as §1

[11] = test system: pooled sera of uninfected people, Mexico
Experimental: as §1

[12] = test system: pooled sera of uninfected people, USA
Experimental: as §1

Sequence | antibody binding signal [1] | antibody binding signal [2] | antibody binding signal [3] | antibody binding signal [4] | antibody binding signal [5] | antibody binding signal [6] | antibody binding signal [7] | antibody binding signal [8] | antibody binding signal [9] | antibody binding signal [10] | antibody binding signal [11] | antibody binding signal [12]
TPPSGKEKKAAAGEA | 11600 | 318 | 527 | 825 | 10400 | 1340 | 422 | 475 | 90.8 | 291 | 81.4 | 122
TENKTAAGETPSQPG | 23800 | 3290 | 30800 | 199 | 220 | 3080 | 202 | 775 | 227 | 253 | 195 | 167
GTDNKAATGGTPSPS | 384 | 812 | 32100 | 337 | 453 | 221 | 191 | 735 | 1880 | 776 | 191 | 121
KDNKPAAGGTPSQPG | 214 | 170 | 1680 | 839 | 194 | 237 | 330 | 258 | 446 | 268 | 276 | 95.6
KDNKTAAGGAPSPPG | 509 | 226 | 340 | 3060 | 271 | 693 | 266 | 115 | 153 | 178 | 99.2 | 179
TENKAATGGTPSPSG | 34100 | 1050 | 367 | 336 | 429 | 278 | 136 | 134 | 278 | 1010 | 168 | 148
TPPSGKDKKPAAGGT | 6060 | 727 | 2260 | 655 | 44200 | 595 | 186 | 369 | 632 | 234 | 99.9 | 140
STPPSGKENKPATGG | 49400 | 29200 | 28200 | 441 | 15800 | 15300 | 4270 | 2580 | 386 | 743 | 367 | 893
GTDKKAAAGGAPSPS | 201 | 209 | 226 | 4510 | 494 | 643 | 141 | 171 | 183 | 133 | 132 | 152
GTEKKAAAGGTPSQS | 462 | 240 | 207 | 4180 | 550 | 1630 | 181 | 398 | 2280 | 146 | 265 | 145
